# Test results: PubChem BioAssay AID1508642 (National Center for Advancing Translational Sciences (NCATS), 2021)
# The whole screen tested about 43,000 compounds, of which about 200 (0.47%) were called active. Not shown: some 12% with an inconclusive outcome. The call rests on the fitted dose curve; in most records, active means well fitted cell-killing curve with a large enough effect; inconclusive means small, poorly fitted or top-dose-only effect, or effect the other way; inactive means flat fitted curve, though single readings scatter. Some of the results follow.
# Assay: Cell viability qHTS assay in S16 Pmp22-F2sN cells; further: nearly all actives have a fitted effect of over 65% in size
# Conditions: S16 Pmp22-F2sN Schwann cells (luciferase reporters placed in the Pmp22 gene) viability, CellTiter-Glo, 24 h; series mostly up to 57.5 µM; activity change, negative = cytotoxicity: at the top concentration
# Procedure, shortened: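 CellTiter-Glo counter-screen, qHTS, 1536-well. Cells: S16(c9) Pmp22-F2sN, 500-1,000/well in DMEM + 10% FBS. Cpd 23 nL pin transfer, 24 h, 37C/5% CO2. Read: luminescence, CCD imager.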
# On the % scale 0 is the no-effect control and ±100 the full control effect; potency means the concentration at half of the fitted maximal effect.
Compound,"activity change, negative = cytotoxicity",Potency
COc1ccc(-n2cc(C(=O)Nc3cc(F)ccc3F)c3ccccc3c2=O)cc1,inactive: -14.3%,–
COc1cc(-c2cc3n(C)c(C)c(CCC(=O)NCc4ccccc4)c(=O)n3n2)cc(OC)c1OC,inactive: 2.09%,–
COc1cccc(CNC(=O)C2CCN(Cc3cc4ccccc4n3Cc3ccc(C)cc3)CC2)c1,inactive: -21.7%,–
CCN(CC)c1ccc(NC(=O)c2sc3ccccc3c2Cl)cc1,inactive: 19.5%,–
COc1ccc(OC)c(-c2noc(N3CCN(c4cc(C)ccc4C)CC3)n2)c1,inactive: 21.5%,–
CCOC(=O)Cc1ccc(NC(=O)Nc2cc3c(cc2N2CCCCC2)n(C)c(=O)n3C)cc1,inactive: -0.952%,–
CCCn1c(=N)c(C(=O)NCc2cccnc2)cc2c(=O)n3ccccc3nc21,inactive: 20.6%,–
COc1ccc(NC(=O)C(Cc2ccccc2)NS(=O)(=O)c2ccc3c(c2)CCN3C(C)=O)cc1 (stereo not drawn),inactive: 0.704%,–
CCOC(=O)c1cc(OC(=O)c2ccc(OC)cc2)n(-c2ccccc2)n1,inactive: 9.69%,–
Cc1ccc(C)c(CNC(=O)c2ccc3c(c2)nc2n3CCC(C)C2)c1 (stereo not drawn),inactive: 3.91%,–
Cc1ccc(N(C)S(=O)(=O)c2nnc(NC(=O)CC(C)C)s2)cc1,inactive: -0.587%,–
COc1ccc(Cl)cc1Nc1cc(C)nc2nc(-c3ccccc3C)nn12,inactive: 12.2%,–
CN(C)c1ccc(C(CNC(=O)c2cccc(C(F)(F)F)c2)N2CCCC2)cc1 (stereo not drawn),inactive: 1.68%,–
CCCSc1nc(-c2ccc(OC)cc2)cc(-c2ccccc2OC)c1C#N,inactive: 24.8%,–
Cc1cccc(C)c1NC(=O)CN(Cc1ccc(Br)cc1)S(=O)(=O)c1ccccc1,inactive: -19%,–
COc1ccc(Br)cc1CNC(=O)c1cc(=O)[nH]c2ccc(S(=O)(=O)N3CCCCC3)cc12,inactive: -0.239%,–
CCCC(=O)Nc1cccc(-c2cn3cccnc3n2)c1,inactive: 4.87%,–
Cc1ccc(CNc2ncnc3c2c(-c2ccccc2)cn3-c2ccccc2)cc1,inactive: -2.81%,–
CCOC(=O)c1ccc(NS(=O)(=O)c2ccc3c(c2)OCCO3)cc1,inactive: -6.07%,–
CCOc1ccc(NC(=O)C2CCN(S(=O)(=O)c3c(C)noc3/C=C/c3c(C)cc(C)cc3C)CC2)cc1,inactive: -0.148%,–
COc1ccc(CNC(=O)CCCn2c(=O)c3cccn3c3ccc(F)cc32)cc1OC,inactive: -0.229%,–
O=C(Nc1ccc(Cl)c(C(F)(F)F)c1)c1ccc2c(c1)CCN2S(=O)(=O)c1ccccc1,–,active: 22.4 µM
COc1ccc(NC(=O)CN2C(=O)CSc3ccc(S(=O)(=O)N(C)C)cc32)cc1Cl,inactive: -21.4%,–
COc1ccc(NC(=O)C2CCN(C(=O)N3CCOc4ccccc43)CC2)cc1,inactive: -3.65%,–
Cc1ccccc1Cn1nnc2c(=O)[nH]c(C3CCN(C(=O)c4ccccc4Cl)CC3)nc21,inactive: -4.23%,–

Compound,"activity change, negative = cytotoxicity",Potency
COc1ccc(NC(=O)N2CCN(S(=O)(=O)c3ccc4c(ccn4C)c3)CC2)cc1OC,inactive: 7.33%,–
CCC1CN(C(=O)NCc2ccccc2)c2cc(C)ccc2O1 (stereo not drawn),inactive: 14.3%,–
COCCCNC(=O)C(C)n1c2ccccc2c2cnn(C)c(=O)c21 (stereo not drawn),inactive: 5.84%,–
COc1ccc(-c2noc(N3CCC(C(=O)Nc4ccc(OC)c(OC)c4)CC3)n2)cc1,inactive: -4.42%,–
O=c1c2cc3c(cc2n(Cc2ccccc2)c(=O)n1Cc1nc(-c2ccccc2)no1)OCO3,inactive: 5.35%,–
Cc1ccc(-c2cn3nc(N4CCCC(C(=O)NCc5ccc(F)cc5)C4)sc3n2)cc1 (stereo not drawn),inactive: 13.3%,–
COc1ccc2cc(CNc3ccc(C)cc3)c(=O)n(CC(=O)Nc3ccc(C)cc3Cl)c2c1,inactive: -1.27%,–
CCN1CCSc2ccc(C(=O)NCc3cccc(Br)c3)cc21,inactive: 3.32%,–
CCCCOc1ccccc1C(=O)N(Cc1sccc1C)C1CCS(=O)(=O)C1 (stereo not drawn),inactive: -5.12%,–
Cc1ccc2nc(CN3CCN(S(=O)(=O)c4ccc(C(C)C)cc4)CC3)oc2c1,inactive: -14.4%,–
COC(=O)c1ccc(NC(=O)CCn2cnnn2)c(C)c1,inactive: 4.47%,–
Cc1cc(C)cc(NC(=O)Cn2c(=O)n(-c3ccc(C)c(C)c3)c(=O)c3oc4ccccc4c32)c1,inactive: 0.66%,–
COc1ccc(N2CCN(Cc3nc4c(c(=O)n(C)c(=O)n4C)n3C(C)C)CC2)cc1,inactive: -11.9%,–
Cc1ccc(-n2c(CCC(=O)O)ccc2-c2cccs2)cc1Cl,inactive: 0.467%,–
O=C(c1ccco1)N(Cc1cccs1)c1ccc(F)cc1,inactive: -0.167%,–
Cc1cc(O)c(C(c2ccccc2)N2CCN(c3ccc(F)cc3)CC2)c(=O)n1Cc1ccco1 (stereo not drawn),inactive: 1.08%,–
COc1ccc(CNC(=O)c2sc3nc[nH]c(=O)c3c2C)cc1,inactive: 2.39%,–
CCOc1ccccc1N1CC(c2nc3ccccc3n2CCCOc2ccc(OC)cc2)CC1=O (stereo not drawn),inactive: 0.383%,–
COc1cccc(CNC(=O)c2ccc(-n3c(C)cc4c3CCCC4)cc2)c1,inactive: -18.2%,–
Cc1noc(-c2ccccc2OCC(=O)Nc2ccccc2[N+](=O)[O-])n1,inactive: -4.25%,–
CC(C)OCCCN1C(=O)c2[nH]nc(-c3ccccc3O)c2C1c1ccccc1F (stereo not drawn),inactive: 0.0218%,–
CCc1ccc(C(=O)CC2(O)C(=O)N(Cc3ccc(C)cc3)c3ccccc32)cc1 (stereo not drawn),inactive: -21%,–
Cc1cccc(OCc2cc(=O)n3c4c(sc3n2)CCCC4)c1C,inactive: 10.1%,–
CCc1ccccc1NC(=O)c1cc2nc(-c3ccc(Br)cc3)cc(C(F)(F)F)n2n1,inactive: -24.2%,–
CC(C)c1nc2ccc(C(=O)NCc3ccccc3Br)cc2o1,inactive: -4.68%,–

Compound,"activity change, negative = cytotoxicity",Potency
COc1ccccc1S(=O)(=O)Cc1ccc(C(=O)N2CCN(c3cc(Cl)ccc3C)CC2)o1,inactive: -6.27%,–
CCc1ccccc1NC(=O)COCc1cc(-c2ccco2)on1,inactive: -2.41%,–
CCOc1ccc(OCC)c(NC(=O)C2CCN(S(=O)(=O)c3ccc4c(c3)CC(C)N4C(C)=O)CC2)c1 (stereo not drawn),inactive: 16.6%,–
Cc1ccc2occ(CC(=O)N(Cc3ccc(Cl)cc3)Cc3ccco3)c2c1,inactive: -23.1%,–
Cc1ccc(N2C(=O)[C@@H]3CSC(c4ccc(Cl)cc4)N3C2=O)cc1 (stereo partly drawn),inactive: -1.25%,–
CCOc1ccc2c(c1)c(=O)c(C(=O)c1ccc(CC)cc1)cn2CC(=O)Nc1cccc(Cl)c1,inactive: 4.64%,–
Cc1cc(C)c(Cn2c(=O)n(CCC(=O)NCc3ccc4c(c3)OCO4)c(=O)c3ccccc32)c(C)c1,inactive: 24.1%,–
COCCNC(=O)Cn1nc(-c2ccc(C)cc2)c2ccccc2c1=O,inactive: 4.54%,–
Cc1cccc(NC(=O)c2ccc(CN3CC(=O)N4CCCCC4C3=O)cc2)c1C (stereo not drawn),inactive: 12%,–
Cc1ccc2oc(-c3cccc(NC(=O)c4cccc5c(Cl)cccc45)c3)nc2c1,inactive: 19.4%,–
CCCCn1c(CCCNC(=O)c2cccc(C)c2)nc2ccccc21,inactive: -19.7%,–
COc1cccc(Cn2nnc3c(=O)[nH]c(C4CCCN(C(=O)c5ccccc5Cl)C4)nc32)c1 (stereo not drawn),inactive: -28.1%,–
COc1ccc(CNc2nc(-c3ccc(Cl)cc3)cc(C(F)(F)F)n2)cc1,inactive: 15.9%,–
Cc1cccc(NC(=O)C(=O)NCCCN2CCOCC2)c1,inactive: -2.83%,–
COc1ccc(NC(=O)c2nc(SCc3ccc(F)cc3)ncc2Cl)cc1,inactive: 4.78%,–
CCOc1ccc(NC(=O)c2sc(-n3nc(C)c(CCC(C)C)c3C)nc2C)cc1,inactive: 7.97%,–
CCOc1ccccc1NC(=O)CSc1ncc2c(n1)-c1ccccc1N(CC)S2(=O)=O,inactive: -3.53%,–
COc1ccc(CNCc2ccc(C(=O)O)s2)cc1,inactive: 2.28%,–
CCCCOC(=O)CSc1ncnc2sc3c(c12)CCC(C)C3 (stereo not drawn),inactive: -2.9%,–
C=Cc1ccc(Cn2c(C(=O)O)c(CNCCc3ccco3)c3ccc(C)cc32)cc1,inactive: -16.9%,–
COC(=O)c1cc2sccc2n1Cc1nc(-c2cccc(Cl)c2)oc1C,inactive: -1.07%,–
CC1=C(c2ccc(C)cc2)S(=O)(=O)NC1=NCc1ccccc1Cl,inactive: -18.9%,–
CCC(C)Nc1nc2c(c(=O)[nH]c(=O)n2C)n1Cc1ccc(F)cc1 (stereo not drawn),inactive: -1.96%,–
CCOc1ccccc1CNC(=O)c1ccc2nc(N3CCC(C)CC3)sc2c1,inactive: -2.86%,–
Cc1ccc(-n2ncc3c(NCCc4ccc(S(N)(=O)=O)cc4)ncnc32)cc1,inactive: 2.66%,–

Compound,"activity change, negative = cytotoxicity",Potency
CCN(C(=O)Cn1c(=O)oc2cc(S(=O)(=O)N3CCCCCC3)ccc21)c1cccc(C)c1,inactive: 21.8%,–
O=C(NCc1ccccc1)NC1COc2ccccc2C1 (stereo not drawn),inactive: 3.38%,–
Cn1cc(S(=O)(=O)N2CCCCCC2)cc1C(=O)NCc1ccc(F)cc1,inactive: 2.64%,–
Cc1cccc(OC(=O)c2snnc2C)c1,inactive: -1.21%,–
Cc1cccc(C)c1Nc1c(-c2ccccn2)nc2ccc(Cl)cn12,inactive: 13.7%,–
Cc1ccc(S(=O)(=O)Nc2cc(Cl)c3oc4c(c3c2)CCCC4)cc1,inactive: 28.3%,–
Cc1c(-c2nsc(NC(=O)c3cccs3)n2)nnn1-c1ccc(F)cc1,inactive: -1.36%,–
COc1ccccc1CNC(=O)CCS(=O)(=O)c1ccc2c(c1)oc(=O)n2C,inactive: -9.31%,–
O=C(COc1ccccc1F)Nc1ccc2nc(SCC(=O)N3CCOCC3)sc2c1,inactive: -2.11%,–
O=S(=O)(c1ccccc1)c1nc(-c2ccc(F)cc2)oc1NCc1ccccc1,inactive: 18.9%,–
COc1ccc(CNC(=O)CCCc2nnc3n(C(C)C)c(=O)c4sccc4n23)cc1,inactive: 4.31%,–
CC(C)Oc1ccc(C(=O)N(Cc2ccc(N(C)C)cc2)Cc2ccco2)cc1,inactive: -9.6%,–
Cc1c(C)n(Cc2ccccc2)c2ccc(C(=O)N3CCN(c4ccccc4)CC3)cc12,inactive: -0.246%,–
CCN(CC)S(=O)(=O)c1ccc2c(c1)N(CC(=O)Nc1c(C)cccc1C)C(=O)C1CCCN21 (stereo not drawn),inactive: 7.75%,–
CCOC(=O)c1oc2c(c1C)-c1nn(Cc3cccc(Cl)c3)cc1CC2,inactive: -13.2%,–
COc1cc(NC(=O)CN2CCCN(Cc3cccc(F)c3)S2(=O)=O)cc(OC)c1,inactive: -0.551%,–
CCOC(=O)c1c(C)oc2nc(C)nc(NCCc3ccc(C)cc3)c12,inactive: 3.9%,–
CCOc1ccc(NC(=O)CSc2oc(-c3ccco3)nc2S(=O)(=O)c2ccccc2)cc1,inactive: -0.6%,–
Cc1ccc(NC(=O)c2oc3ccc(S(=O)(=O)N(C)C4CCCCC4)cc3c2C)c(C)c1,inactive: -12.6%,–
CCCNC(=O)c1cc2n(n1)CCCN(Cc1ccc(C)cc1)C2=O,inactive: 7.17%,–
Cc1ccc(CN2C(=O)c3ccccc3Sc3ccc(C(=O)N4CCOCC4)cc32)cc1,inactive: 11.2%,–
CCOc1ccc(-c2cc(C(=O)NCCc3ccc(C)cc3)c3ccccc3n2)cc1,inactive: 20.2%,–
Cc1cccc(-n2c3nc(=O)[nH]c(=O)c-3cc3ccc(Cl)cc32)c1C,inactive: -3.38%,–
